In all, about 310,000 compounds went through this assay and about 14,000 (4.5%) showed an effect of 50% or more. Effects have a minus sign here. This is one part of the list.
Target: human ether-à-go-go-related gene (hERG) potassium channel (human, UniProt Q12809)
Test: primary screen, population patch clamp on CHO cells stably expressing hERG
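Note: peak tail current of the secondary pulse compared with the same well before compound.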

human ether-à-go-go-related gene (hERG) potassium channel, sequence (Q12809 whole entry, looked up): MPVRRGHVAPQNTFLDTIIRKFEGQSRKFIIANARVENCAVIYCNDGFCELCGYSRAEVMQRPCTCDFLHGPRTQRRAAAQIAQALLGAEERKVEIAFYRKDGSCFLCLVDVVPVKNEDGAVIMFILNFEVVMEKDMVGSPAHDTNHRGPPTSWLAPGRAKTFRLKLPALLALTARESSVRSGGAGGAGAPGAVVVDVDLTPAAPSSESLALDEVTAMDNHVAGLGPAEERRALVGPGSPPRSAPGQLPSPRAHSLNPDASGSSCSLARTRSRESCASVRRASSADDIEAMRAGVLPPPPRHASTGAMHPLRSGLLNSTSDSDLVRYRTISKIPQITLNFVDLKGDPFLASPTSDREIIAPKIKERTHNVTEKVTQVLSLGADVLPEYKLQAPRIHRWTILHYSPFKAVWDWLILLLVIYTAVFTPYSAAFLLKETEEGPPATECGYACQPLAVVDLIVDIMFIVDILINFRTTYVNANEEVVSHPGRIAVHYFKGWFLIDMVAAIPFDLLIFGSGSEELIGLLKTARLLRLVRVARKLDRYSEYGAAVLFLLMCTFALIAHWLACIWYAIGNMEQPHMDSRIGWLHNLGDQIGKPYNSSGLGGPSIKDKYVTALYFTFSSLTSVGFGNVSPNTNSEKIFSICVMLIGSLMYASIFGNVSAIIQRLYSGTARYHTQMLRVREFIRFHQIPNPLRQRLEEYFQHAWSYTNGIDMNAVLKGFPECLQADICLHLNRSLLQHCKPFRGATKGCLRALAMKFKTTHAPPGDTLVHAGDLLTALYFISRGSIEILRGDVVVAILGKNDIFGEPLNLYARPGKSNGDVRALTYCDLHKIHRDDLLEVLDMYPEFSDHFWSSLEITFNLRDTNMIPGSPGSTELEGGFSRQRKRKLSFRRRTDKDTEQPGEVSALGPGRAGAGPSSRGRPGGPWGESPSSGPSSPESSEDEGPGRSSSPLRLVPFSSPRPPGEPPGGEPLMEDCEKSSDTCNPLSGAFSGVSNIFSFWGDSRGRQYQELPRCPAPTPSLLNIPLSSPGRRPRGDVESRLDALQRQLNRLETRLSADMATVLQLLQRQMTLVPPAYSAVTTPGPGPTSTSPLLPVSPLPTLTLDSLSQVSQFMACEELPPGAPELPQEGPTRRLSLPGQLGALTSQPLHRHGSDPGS

SMILES	hERG current change (%, negative = inhibition) at 10uM [%]
Nn1c(SCc2ccccc2F)nnc1-c1ccncc1	1.68
COc1ccc(C(C)NC(=O)c2ccc(Cl)cc2)cc1OC (centres unmarked)	0.0898
CCOc1ccc(-c2nnc(-c3ccccc3)o2)cc1	10.1
Cc1cccc2cc(CN(CCN3CCOCC3)C(=O)Nc3ccccc3F)c(=O)[nH]c12	-20.6
O=c1oc2ccccc2c2nccnc12	13.8
COc1ccc(Nc2nc3ccccc3n3cnnc23)cc1Cl	19.5
COc1ccc(NC(=O)C(=O)N/N=C/c2cc(C)n(-c3cccc(Cl)c3Cl)c2C)c(OC)c1	1.91
O=C(N/N=C/c1ccc(N2CCOCC2)s1)c1ccccc1Br	39.1
Cc1ccc(CN2CCC(CNC(=O)C3CCCN(c4ncnc5c4nc4n5CCCCC4)C3)CC2)cc1 (centres unmarked)	-45
CCOc1cccc(C2C(C(=O)c3ccco3)=C(O)C(=O)N2c2nnc(C)s2)c1 (centres unmarked)	-10.7
O=S(=O)(c1ccccc1)C1CON(Cc2ccccc2)C1c1ccccc1 (centres unmarked)	-0.527
COc1cc(/C=N/NC(N)=O)ccc1OCC(=O)N1C(C)CCCC1C (centres unmarked)	11.6
O=C(CCCCCn1c(=S)[nH]c2ccccc2c1=O)N1CCC2(CC1)OCCO2	-14.1
O=C(NCC1CCCO1)C(c1cccs1)N(Cc1cccs1)C(=O)c1ccc(-c2ccccc2)[nH]1 (centres unmarked)	7.78
COc1ccc(OC)c(C(=O)c2ccc(C(=O)Nc3ccccc3)cc2)c1	10.8
COc1ccc(OC)c(N2C(=O)C(Cl)=C(N3CCCCC3)C2=O)c1	-6.18
CC(=O)c1ccc(NC(=S)N2CCN(C(=S)Nc3ccc(C(C)=O)cc3)C(C)C2)cc1 (centres unmarked)	20.6
COc1ccc(-n2nc(C(=O)NCC(=O)Nc3ccccn3)c3ccccc3c2=O)cc1	10.6
COC(=O)C1SCC2C(=O)N(Cc3cccc(C)c3)CC(=O)N21 (centres unmarked)	13.1
CC(=O)OCCc1c2ccccc2c(CCCN(C)C)c2ccccc12	-6.73
O=C(CN1C(=O)c2ccccc2S1(=O)=O)N1CCN(c2ccccc2)CC1	-6.06
CC1CCN(c2ccc(NC(=O)c3cccnc3Cl)cc2)CC1	7.64
Cc1cc(C)nc(NC(=O)CCC2CCCC2)c1	-4.11

SMILES	hERG current change (%, negative = inhibition) at 10uM [%]
O=C(NNC(=O)C1CCN(Cc2cccc(F)c2)CC1)c1cccs1	21.5
CCOC(=O)C1CCN(C(=O)CCCOc2ccccc2)CC1	3.42
CCOc1ccc(C(C)=O)cc1CN1C(=O)C(=O)N(CC)C1=O	1.3
O=C(CNS(=O)(=O)Cc1ccccc1)NCc1ccccc1	16.8
CCN1CCN(CCCNC(=O)CCC(=O)N2CCOc3ccccc32)CC1	-13
O=C(CC1C(=O)NCCN1Cc1ccc(F)cc1Cl)NC1CCCCCCC1 (centres unmarked)	-2.53
CCCN(c1ccc(C(C)C)cc1)S(=O)(=O)c1c(C)[nH]c(=O)[nH]c1=O	-10
Fc1ccccc1NC(=S)Nn1cnnc1	20.2
Clc1ccc(-c2nc3ccccn3c2CN2CCOCC2)cc1	-14
Cc1ccc(C(=O)CSc2n[nH]c(-c3ccco3)n2)cc1C	0.766
CCOc1ccc(CCNC(=O)Cn2c(=O)oc3ccccc32)cc1OCC	-8.77
COc1ccc(N(CC(=O)Nc2cccc(N(C)S(C)(=O)=O)c2)S(C)(=O)=O)cc1OC	7.44
CCOC(=O)C1CCN(C(=O)CN(c2ccc(Cl)c(C(F)(F)F)c2)S(C)(=O)=O)CC1	-29.2
CC(C(=O)OCC(=O)c1ccc(F)cc1)N1C(=O)C2C3C=CC(C3)C2C1=O (centres unmarked)	-15.4
CCc1ccc(OCCCN=C(C)c2c(O)n(C)c(=O)n(C)c2=O)cc1	-45.8
COc1ccccc1Oc1ccc(N/C=C/C(=O)c2ccc(C)o2)cc1	9.42
CCO[C@@H]1OC(C(=O)NCc2nc3ccccc3[nH]2)=C[C@H](c2cn(C(C)=O)c3ccccc23)[C@H]1CCCO	-67.2
O=C(Nc1nc2cc3c(cc2s1)OCO3)C1CCCCC1	12.6
CCOc1ccccc1NC(=O)CN1CCC(NC(=O)c2ccccc2C)CC1	-59.4
O=C(NCCCCNC(=O)c1ccccc1Br)c1ccccc1Br	0.551
CC(C)(C)C(=O)Nc1ccc(Sc2ccc([N+](=O)[O-])cc2)cc1	-14.8
CCCCCCCC(=O)Nc1cc(C(=O)NCc2ccc(C)cc2)ccc1N1CCC2(CC1)CC(c1ccccc1)=NO2	17.2
CN(C)c1ccc(NC(=O)CSc2nnc(-c3cnccn3)n2C)cc1	20.4

SMILES	hERG current change (%, negative = inhibition) at 10uM [%]
Cc1ccc(C(=O)N(CC(=O)NC2CCCC2)c2ccccc2Cl)s1	-0.097
Cc1ccc(C(c2nnnn2Cc2cccs2)N2CCN(Cc3ccc4c(c3)OCO4)CC2)cc1 (centres unmarked)	-75.3
CC(C)NC(=O)NC(=O)COC(=O)c1ccc(OC(F)(F)F)cc1	-0.35
O=C(Nc1cc(C(F)(F)F)ccc1Cl)C(=O)N1CCCCC1	-18.4
CCOc1ccc(N2C(=O)NC(=O)/C(=C/c3cnc(SC)nc3)C2=O)cc1	33.8
Cc1ccc(Cn2ncn3c(cc4ccccc43)c2=O)cc1	16
C/C(=N\NC(=O)c1nnn(-c2nonc2N)c1-c1ccccc1)c1ccccc1O	6.98
O=C(N/N=C/c1c(O)n(CCC2=CCCCC2)c(=O)[nH]c1=O)c1ccccc1	2.52
COc1cc(O)c(C(CCN2CCCC(C)C2)c2ccc3c(c2)OCO3)c(OC)c1 (centres unmarked)	-77.5
COCCCn1c(C)c(C(C)=O)cc(NC(=O)c2ccccc2)c1=O	3.08
COc1ccc(C=O)cc1OC(=O)C1(C)Cc2ccccc2C(=O)O1 (centres unmarked)	14.7
COc1cc(-c2nnc(SCC(=O)Nc3cc(C)on3)n2C)cc(OC)c1O	-5.05
CCn1c(=S)sc2c(=O)n(CC(=O)Nc3ccccc3)c(C)nc21	18.7
C#C[C@]1(O)CC[C@H]2[C@@H]3CCc4cc(O)ccc4[C@H]3CC[C@@]21C	4.05
CCO[C@H]1OC(C(N)=O)=C[C@@H](C2CC2)[C@@H]1CCCO	13.3
CCc1cc2c(=O)c(-c3nc(C)cs3)coc2cc1O	4.97
COc1ccc(N2CC(C(=O)Nc3nccs3)CC2=O)cc1 (centres unmarked)	3.06
CC(C)[C@H](N)C(=O)NCC1CCC(C(=O)N[C@@H](Cc2ccccc2)C(=O)O)CC1.Cl (some centres unmarked)	9.74
Cc1ccc2c(CN3CC(C)CC(C)C3)cc(=O)oc2c1 (centres unmarked)	-2.89
Cc1nc2nc(-c3ccccc3)nn2c(C)c1Cl	1.5
N#Cc1ccc(CSc2nnc(COc3ccccc3)n2-c2ccccc2)cc1	-52.3
CC(NC(=O)c1ccccc1F)c1cccc2ccccc12 (centres unmarked)	-0.358
COc1ccc(-c2cn3cccnc3n2)cc1F	12.2

SMILES	hERG current change (%, negative = inhibition) at 10uM [%]
C=CCSc1nnc(NC(=O)CSc2ccccn2)s1	0.442
Cc1cc(C(=O)OC(C(=O)Nc2cccc(C(F)(F)F)c2)c2ccccc2)c(C)o1 (centres unmarked)	-2.76
O=S(=O)(Nc1cccc(-c2cn3c(n2)SCC3)c1)c1cccs1	-22.7
CSc1nc(-c2ccc(F)cc2)cc(=O)[nH]1	11
CC(C)=CCN1CCN(Cc2ccc(C#CC(C)(C)O)cc2)CC1CCO (centres unmarked)	16.3
COc1ccc(CCNC(=O)c2noc(C)c2[N+](=O)[O-])cc1OC	11
COc1ccc(Cn2c(-c3ccccc3C)nc3c(c(=O)c4ccccc4n3C)c2=O)cc1	-0.644
COc1ccc(NC(=O)CN(c2ccccc2F)S(=O)(=O)c2ccc(C)cc2)cc1	10.6
CCCCSc1nnc(-c2ccccc2N)c(=O)[nH]1	-13.9
O=C(NC(=S)Nc1ccccc1Br)C1CCC1	-30.9
N=C1c2ccccc2CN1NC(=O)c1ccccc1	5.27
Cc1cc(OC(=O)N(C)C)n(-c2ccccc2)n1	10.7
O=C(Cc1ccccc1)Nc1cccc(C(=O)O)c1O	-5.26
S=C(NC1CCCC1)NC1CCCC1	16.7
Cc1ccccc1OC(C)C(=O)N1CCC(Cc2ccccc2)CC1 (centres unmarked)	-17.5
CC(C)CN(C(=O)C1CCCCC1)C1CCS(=O)(=O)C1 (centres unmarked)	10.4
CCNc1nc2c(c(=O)n(Cc3ccccc3)c(=O)n2C)n1Cc1ccccc1	-22.3
CSCCC(NS(=O)(=O)c1ccccc1F)C(=O)N1CC=C(c2ccccc2)CC1 (centres unmarked)	18.6
CCOC(=O)c1ccc(NC(=O)CSc2nnc(CNc3ccc(C)cc3)n2C)cc1	1.49
COc1ccc(CCn2c(=N)c(C(=O)NCC3CCCO3)cc3c(=O)n4cccc(C)c4nc32)cc1OC (centres unmarked)	-80.9

— paper PMC4336329 (PLoS ONE, 2015)
